Measured values published in PubChem BioAssay (NCATS).
Some of the results follow. Shown are side measurements of this screen, not its main read-out; they come without a call. Words in brackets tell the shape of the fitted curve; partial curves, single points and poor fits give uncertain potencies.

Assay: qHTS drug screen for cell cycle checkpoint inhibitors in PARPi-resistant BRCA-mutant ovarian cancer cell lines. (AID 1963452)
Details: PEO1/OlaR viability, CellTiter-Glo luminescence, 96 h
Method in brief: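 PEO1, PEO4 and PEO1/OlaR ovarian cancer cells, 600 per well, exposed 96 h at 37C to a dilution series. Viability read by CellTiter-Glo luminescence, normalized to DMSO and empty wells; activity summarized as Z-AUC.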

[1] = measured here: PEO1 parental viability
Tags describe the fitted curve by direction and shape.

| SMILES | AC50 [1] | AC50 (measured here: PEO4 viability) |
| --- | --- | --- |
| Cc1cnc(Nc2ccc(F)cc2Cl)nc1-c1c[nH]c(C(=O)NC(CO)c2cccc(Cl)c2)c1 (centres undefined) | 6.16 µM [falling, partial curve, poor fit] | 4.36 µM [falling, full curve] |
| CCc1ccc(N(CC(C)C)S(=O)(=O)c2ccc(OCC3CCOCC3)c(CO)c2)cc1 | 17.4 µM [falling, single point] | 24.5 µM [falling, single point] |
| COc1cc(OC)cc(N(CCNC(C)C)c2ccc3ncc(-c4cnn(C)c4)nc3c2)c1 | 1.74 µM [falling, full curve] | 3.47 µM [falling, full curve] |
| CCC[C@H](NC(=O)/C(C#N)=C/c1cccc(Br)n1)c1ccccc1 | 4.9 µM [falling, full curve] | 3.09 µM [falling, full curve] |
| CCn1c(=O)c(-c2ccc(Cl)cc2Cl)cc2cnc(Nc3ccc(N4CCNCC4)c(F)c3)nc21 | 2.45 µM [falling, full curve] | 3.09 µM [falling, full curve] |
| CC(C)(C)c1[nH]cnc1/C=c1\[nH]c(=O)/c(=C/c2ccccc2)[nH]c1=O | 0.616 µM [falling, partial curve] | 0.0389 µM [falling, full curve, poor fit] |
| COc1ccc(/C=C\c2cc(OC)c(OC)c(OC)c2)cc1O | 0.0049 µM [falling, full curve] | 0.0062 µM [falling, full curve, poor fit] |
